Assay results reported in the supplement of paper PMC10441789.
This is one part of the list. Antibody binding of pooled human sera (four to six donors per pool; dilution not stated) to peptides of the Trypanosoma cruzi antigen TSSA on microarrays. Quantile-normalised fluorescence in arbitrary units, mean of duplicate arrays; higher = more binding. No active / inactive call. The uninfected pools are read here as the healthy donors of the same country. The strongest signals lie near the top of the scale (about 60,000).

Each sequence was assayed on pooled sera of chronic Chagas disease patients, Argentina (assay: antibody binding signal (normalised fluorescence) (arbitrary fluorescence units); higher = stronger serum antibody binding to peptide).
Description: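 Microarray of 15-residue peptides over residues 30-55 of Trypanosoma cruzi TSSAII, each with 1 to 10 substitutions at naturally variable positions, probed with one serum pool per country.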
GTENKTAAGGAPSPS gave an antibody binding signal of 33100.
With SGKDNKAAAGGTPSQ the antibody binding signal was 545.
Work on TENKAATGEAPSQSG yielded an antibody binding signal of 32300.
GKENKTAAGEAPSPS showed an antibody binding signal of 3980.
Sequence KDNKAAAGGTPSQSG has an antibody binding signal of 172.
SGKENKTATGEAPSP was tested, and the antibody binding signal was 14800.
In the case of SGTDNKTAAGETPSP, the antibody binding signal is reported as 212.
Sequence TISTPPSGKDNKPAA has an antibody binding signal of 18300.
Work on DNKPATGGTPSPSGA yielded an antibody binding signal of 503.
DKKTAAGGTPSQPGA gave an antibody binding signal of 664.
In the case of GKENKAATGGTPSPS, the antibody binding signal is reported as 2390.
ENKPATGETPSPPGA was tested, and the antibody binding signal was 38400.
NKTATGGAPSPPGAS was tested, and the antibody binding signal was 678.
SGTDNKAAAGEAPSQ gave an antibody binding signal of 474.
DNKPAAGGTPSQSGA was tested, and the antibody binding signal was 238.
Work on TPPSGKDKKAATGEA yielded an antibody binding signal of 8290.
In the case of SGTENKTAAGGAPSQ, the antibody binding signal is reported as 30200.
NKPATGGTPSPSGAS showed an antibody binding signal of 617.
For KDNKTATGETPSQPG, the antibody binding signal was 2350.
Work on KEKKAATGGAPSQPG yielded an antibody binding signal of 525.
Work on KEKKPATGETPSQSG yielded an antibody binding signal of 25700.
KEKKPATGGAPSPPG gave an antibody binding signal of 469.
Sequence KENKAAAGEAPSPSG has an antibody binding signal of 190.
For GTDNKAAAGEAPSQS, the antibody binding signal was 460.
With GKEKKPATGGTPSQP the antibody binding signal was 2400.
In the case of GKDKKPAAGETPSPP, the antibody binding signal is reported as 592.
Work on GTDNKAATGEAPSPS yielded an antibody binding signal of 26200.
EKKPAAGEAPSQSGA showed an antibody binding signal of 1630.
For TPPSGKEKKTAAGGA, the antibody binding signal was 4630.
In the case of DKKPATGGAPSQPGA, the antibody binding signal is reported as 1100.
Work on GTDKKTAAGGTPSPP yielded an antibody binding signal of 484.
KDNKAAAGGTPSPSG showed an antibody binding signal of 225.
Sequence KKPATGETPSQPGAS has an antibody binding signal of 9080.
SGKENKPATGGAPSP was tested, and the antibody binding signal was 5400.
GTEKKTAAGEAPSPS gave an antibody binding signal of 557.
PSGTEKKTAAGGTPS gave an antibody binding signal of 9090.
TPPSGTDNKAAAGEA gave an antibody binding signal of 44600.
With KDNKTAAGETPSQSG the antibody binding signal was 847.
Sequence GTDNKTATGGAPSQP has an antibody binding signal of 752.
With KDNKPAAGGAPSQSG the antibody binding signal was 195.
